# Measurements taken from the supplement of paper PMC4604168 (melanoma cell lines).
# The other results are listed elsewhere or left out. Most values come without repeats; read them as rough.
# Tested on: G361
# Assay: cell count relative to DMSO control; melanoma cells; higher = more viable cells
# Settings: library dose: standard library concentration; 72 h
# 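Further: cells treated in 1,536-well plates, then fixed and DAPI-stained, with nuclei counted from automated high-throughput microscope images.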
row,Compound,cell count [%]
1,"CN(c1ncccc1CNc1nc(Nc2ccc3c(c2)CC(=O)N3)ncc1C(F)(F)F)S(C)(=O)=O + COc1cc2ncnc(Nc3ccc(Oc4ccccc4)cc3)c2cc1OC [SrcI1] (first compound 0.4 µM, partner dose 10 µM)",69
2,"NC1(c2ccc(-c3nc4ccn5c(=O)[nH]nc5c4cc3-c3ccccc3)cc2)CCC1 + Oc1cc(-c2nc(-c3ccccc3)[nH]c2-c2ccncc2)ccc1Cl [L779450] (first compound 2 µM, partner dose 1 µM)",46.1
3,"CS(=O)(=O)c1ccc(C(=O)Nc2ccc(Cl)c(-c3ccccn3)c2)c(Cl)c1 [vismodegib] + C[C@]1(c2nc3c(C(N)=O)cccc3[nH]2)CCCN1 [Veliparib] (first compound 5 µM, partner dose 7 µM)",85.7

# Tested on: IPC-298
# Assay: as above
# Settings: library dose: standard library concentration; 72 h
row,Compound,cell count [%]
1,"CN(c1ncccc1CNc1nc(Nc2ccc3c(c2)CC(=O)N3)ncc1C(F)(F)F)S(C)(=O)=O + C[C@@H]1CCN(C(=O)CC#N)C[C@@H]1N(C)c1ncnc2[nH]ccc12 [CP690550] (first compound 0.4 µM, partner dose 5 µM)",128
2,"CCCS(=O)(=O)Nc1ccc(F)c(C(=O)c2c[nH]c3ncc(Cl)cc23)c1F + Oc1cc(-c2nc(-c3ccccc3)[nH]c2-c2ccncc2)ccc1Cl [L779450] (first compound 0.4 µM, partner dose 1 µM)",78.2
3,"C=C(c1ccc(C(=O)O)cc1)c1cc2c(cc1C)C(C)(C)CCC2(C)C [Bexarotene] + Oc1nc(-c2ccc(C(F)(F)F)cc2)nc2c1CSCC2 [XAV939] (first compound 10 µM, partner dose 10 µM)",87.9
4,"C=C(c1ccc(C(=O)O)cc1)c1cc2c(cc1C)C(C)(C)CCC2(C)C [Bexarotene] + CCCS(=O)(=O)Nc1ccc(F)c(C(=O)c2c[nH]c3ncc(Cl)cc23)c1F [PLX4720] (first compound 10 µM, partner dose 0.4 µM)",68.7
5,"CN(c1ncccc1CNc1nc(Nc2ccc3c(c2)CC(=O)N3)ncc1C(F)(F)F)S(C)(=O)=O + Cc1cc(N2CCOCC2)cc2[nH]c(-c3c(NC[C@@H](O)c4cccc(Cl)c4)cc[nH]c3=O)nc12 [BMS536924] (first compound 0.4 µM, partner dose 1 µM)",111
6,"CS(=O)(=O)c1ccc(C(=O)Nc2ccc(Cl)c(-c3ccccn3)c2)c(Cl)c1 [vismodegib] + O=C(CCCCCCC(=O)Nc1ccccc1)NO [vorinostat] (first compound 5 µM, partner dose 0.4 µM)",81.6
7,"NC1(c2ccc(-c3nc4ccn5c(=O)[nH]nc5c4cc3-c3ccccc3)cc2)CCC1 + Nc1cccc2c1CN(C1CCC(=O)NC1=O)C2=O [lenalidomide] (first compound 2 µM, partner dose 5 µM)",102
8,"CS(=O)(=O)c1ccc(C(=O)Nc2ccc(Cl)c(-c3ccccn3)c2)c(Cl)c1 [vismodegib] + COc1ccc(-c2ccc3c(N4CCOCC4)nc(N4C[C@@H](C)O[C@@H](C)C4)nc3n2)cc1CO [KU0063794] (first compound 5 µM, partner dose 0.1 µM)",73
9,"CS(=O)(=O)c1ccc(C(=O)Nc2ccc(Cl)c(-c3ccccn3)c2)c(Cl)c1 [vismodegib] + C=CCn1c(=O)c2cnc(Nc3ccc(N4CCN(C)CC4)cc3)nc2n1-c1cccc(C(C)(C)O)n1 [MK1775] (first compound 5 µM, partner dose 0.1 µM)",84.2
10,"NC1(c2ccc(-c3nc4ccn5c(=O)[nH]nc5c4cc3-c3ccccc3)cc2)CCC1 + Cn1cc(/C=C2\C(=O)Nc3cccnc32)c2ccccc21 [GW441756] (first compound 2 µM, partner dose 2 µM)",76.1
11,"C=C(c1ccc(C(=O)O)cc1)c1cc2c(cc1C)C(C)(C)CCC2(C)C [Bexarotene] + O=C1NC(=O)/C(=C/c2ccc(-c3ccc(F)cc3O)o2)S1 [AS252424] (first compound 10 µM, partner dose 5 µM)",85.2
12,"CN(c1ncccc1CNc1nc(Nc2ccc3c(c2)CC(=O)N3)ncc1C(F)(F)F)S(C)(=O)=O + Cn1c(Nc2ccc(C(F)(F)F)cc2)nc2cc(Oc3ccnc(-c4ncc(C(F)(F)F)[nH]4)c3)ccc21 [CHIR265] (first compound 0.4 µM, partner dose 0.4 µM)",35.2
